The values below come from the supplement of paper PMC9446081.

Hit rate of the full screen: of about 39,000 compounds, about 220 (0.56%) showed activity. This is one part of the list.
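Note: static incubation at 37 °C against the wild-type strain, values averaged over two biological replicates.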

The subject of this assay is Escherichia coli K-12 BW25113. Nature of the assay: relative growth (OD600 normalised to plate interquartile mean) (fraction); higher = less growth inhibition, active = 0.2 or less. As to conditions: 50 µM; LB; incubation time: overnight (16-24 h).
In the case of `CCCCCCCCCCC[C@@H](N=O)c1cc(C)ccc1O`, the relative growth was inactive: 0.963. In the case of `OCC(O)C(O)C(O)CO` (stereo unspecified) it was inactive: 0.888; in that of `C[C@@H]1CN([C@@H](C)CO)C(=O)c2cc(NC(=O)Nc3ccc4c(c3)OCO4)ccc2O[C@@H](C)CCCCO[C@H]1CN(C)S(=O)(=O)c1ccccc1`, inactive: 1.01.

As for `O=Cc1ccccc1OC1OC(CO)C(O)C(O)C1O` (stereo unspecified), the relative growth was inactive: 1.07. Next, `C[C@@H]1CN([C@@H](C)CO)C(=O)c2cc(NS(=O)(=O)c3cn(C)cn3)ccc2O[C@H]1CN(C)C(=O)Nc1ccccc1`: inactive: 1; `O=C(C[C@H]1CC[C@H]2[C@@H](COC[C@@H](O)CN2S(=O)(=O)c2cccc(F)c2)O1)NCc1ccncn1`: inactive: 1.01.

`C[C@H](CO)N1C[C@H](C)[C@H](CN(C)Cc2ccccc2F)Oc2cc(C#CCN(C)C)ccc2S1(=O)=O`: the relative growth is inactive: 1.01. As to `C[C@@H]1CN([C@@H](C)CO)C(=O)CCCn2nncc2CO[C@H]1CN(C)C(=O)c1cc(-c2ccccc2)on1`, the relative growth was inactive: 0.989. Next, `C[C@@H]1CN([C@H](C)CO)C(=O)c2cccc(NC(=O)c3nc4ccccc4s3)c2O[C@@H]1CN(C)C(=O)Nc1ccc(C(F)(F)F)cc1`: inactive: 0.96. Next, `C[C@@H]1CN([C@@H](C)CO)S(=O)(=O)c2ccc(-c3cncnc3)cc2O[C@H]1CN(C)C(=O)Cc1ccncc1`: inactive: 1.01; `O=C(C[C@H]1C[C@H]2c3cc(NC(=O)NC4CCCC4)ccc3O[C@H]2[C@H](CO)O1)NCc1ccc2c(c1)OCO2`: inactive: 1.02.

Take `C[C@@H]1CCCCO[C@H](CN(C)Cc2ccccc2)[C@H](C)CN([C@H](C)CO)C(=O)c2cc(NC(=O)Cc3ccccc3)ccc2O1`: the relative growth is inactive: 0.989. In the case of `CNC(CC(C)C)C(=O)NC1C(=O)NC(CC(N)=O)C(=O)NC2C(=O)NC3C(=O)NC(C(=O)NC(C(=O)O)c4cc(O)cc(O)c4-c4cc3ccc4O)C(O)c3ccc(c(Cl)c3)Oc3cc2cc(c3OC2OC(CO)C(O)C(O)C2OC2CC(C)(N)C(O)C(C)O2)Oc2ccc(cc2Cl)C1O.Cl` (stereo unspecified) it was inactive: 1; in that of `COc1ccc(CN(C)C[C@H]2Oc3ccc(NS(=O)(=O)c4c(C)noc4C)cc3CC(=O)N([C@H](C)CO)C[C@@H]2C)cc1`, inactive: 0.961. Next, `CCCc1cc(C)[nH]c(=O)c1CNC(=O)c1cc(-c2ccc(N3CCN(C(C)C)CC3)nc2)cc2c1cnn2C(C)C`: inactive: 1.09; `CC(C)NC(=O)N(C)C[C@@H]1Oc2ccc(NC(=O)Cc3ccccc3)cc2CC(=O)N([C@@H](C)CO)C[C@H]1C`: inactive: 1. In the case of `C[C@@H]1CN([C@H](C)CO)C(=O)c2cccc(NS(=O)(=O)c3ccc(Cl)cc3)c2O[C@@H]1CN(C)Cc1ccc(C(F)(F)F)cc1` it was inactive: 1.02; in that of `CNC[C@@H]1Oc2cc(C#CCN(C)C)ccc2S(=O)(=O)N([C@@H](C)CO)C[C@@H]1C`, inactive: 0.98; in that of `CC(=O)NC(CCC(N)=O)C(=O)O` (stereo unspecified), inactive: 0.982. Consider `C[C@H]1CN([C@@H](C)CO)C(=O)c2cc(NS(=O)(=O)c3cccs3)ccc2O[C@@H]1CN(C)C(=O)Nc1cccc2ccccc12`, for which the relative growth was inactive: 0.999. As to `C[C@@H]1CCCCO[C@H](CN(C)C(=O)C2CCCCC2)[C@@H](C)CN([C@H](C)CO)C(=O)c2cc(NS(=O)(=O)c3ccc(Cl)cc3)ccc2O1`, the relative growth is inactive: 1. As to `C[C@@H]1CN([C@H](C)CO)C(=O)CCCn2cc(nn2)CO[C@@H]1CN(C)S(=O)(=O)c1cccc(C#N)c1`, the relative growth is inactive: 0.896. For `COc1ccc(S(=O)(=O)N(C)C[C@H]2Oc3c(NC(=O)c4ccncc4)cccc3C(=O)N([C@H](C)CO)C[C@H]2C)cc1`, the relative growth is inactive: 0.986. Next, `C[C@@H]1CCCCO[C@@H](CN(C)C(=O)Nc2ccc(F)cc2)[C@@H](C)CN([C@H](C)CO)C(=O)c2cc(NC(=O)Nc3cccc4ccccc34)ccc2O1`: inactive: 1.02; `COc1ccc(CNC(=O)C[C@@H]2C[C@H]3c4cc(NC(=O)NC5CCCC5)ccc4O[C@H]3[C@H](CO)O2)cc1`: inactive: 0.972. Next, `C[C@@H]1CN([C@H](C)CO)C(=O)c2c(c3ccccc3n2C)-c2ccccc2CO[C@@H]1CN(C)C(=O)Nc1ccccc1C(F)(F)F`: inactive: 0.971. In the case of `C[C@H]1CN([C@@H](C)CO)C(=O)c2cccc(NC(=O)CCCCCC(=O)Nc3ccccc3N)c2O[C@@H]1CN(C)Cc1ccc(Cl)c(Cl)c1` it was inactive: 1.02.

As to `C[C@H](CO)N1C[C@H](C)[C@@H](CN(C)C(=O)C2CCOCC2)Oc2ncc(/C=C/c3ccccc3)cc2C1=O`, the relative growth was inactive: 0.964. Consider `C[C@H](CO)N1C[C@H](C)[C@H](CN(C)Cc2ccncc2)Oc2ncc(C#Cc3ccc(F)cc3)cc2C1=O`, for which the relative growth was inactive: 0.981. In the case of `COc1ccc(NC(=O)Nc2ccc3c(c2)CC(=O)N([C@H](C)CO)C[C@@H](C)[C@@H](CN(C)Cc2ccc(C(=O)Nc4ccccc4N)cc2)O3)cc1` it was inactive: 0.969. For `C[C@@H]1CCCCO[C@@H](CN(C)Cc2ccc(C(=O)O)cc2)[C@@H](C)CN([C@H](C)CO)C(=O)c2cc(NS(=O)(=O)c3ccc(F)cc3)ccc2O1`, the relative growth was inactive: 1.02. For `C[C@H]1CN([C@@H](C)CO)C(=O)c2cc(NC(=O)Nc3cccc4ccccc34)ccc2O[C@@H]1CN(C)Cc1ccc(Cl)c(Cl)c1`, the relative growth was inactive: 1.02. Next, `Cc1noc(C)c1NC(=O)N(C)C[C@H]1Oc2ccc(NS(C)(=O)=O)cc2C(=O)N([C@H](C)CO)C[C@H]1C`: inactive: 1.02; `C[C@@H]1CN([C@@H](C)CO)C(=O)c2cccc(NS(C)(=O)=O)c2O[C@H]1CN(C)Cc1ccc2c(c1)OCO2`: inactive: 0.957. In the case of `CC(C)(C)c1ccc2c(c1)O[C@H](C(=O)N/N=C/c1ccc[nH]1)CO2.CC(C)(C)c1ccc2c(c1)O[C@H](C(=O)N/N=C\c1ccc[nH]1)CO2` it was inactive: 1; in that of `CN(C)C(=O)C[C@@H]1CC[C@@H]2[C@H](COC[C@H](O)CN2S(=O)(=O)c2ccccc2)O1`, inactive: 1.02. For `COCC(=O)Nc1ccc2c(c1)OC[C@@H](C)N(C(=O)Cc1cccnc1)C[C@H](C)[C@H](OC)CN(C)C2=O`, the relative growth is inactive: 1. Consider `COc1ccc(S(=O)(=O)Nc2ccc3c(c2)C(=O)N([C@@H](C)CO)C[C@H](C)[C@@H](CN(C)C(=O)C2CCCCC2)OCCCC[C@@H](C)O3)cc1`, for which the relative growth was inactive: 0.999. Next, `COc1ccc(CN(C)C[C@H]2Oc3c(NC(=O)Nc4ccc(C(F)(F)F)cc4)cccc3C(=O)N([C@@H](C)CO)C[C@@H]2C)cc1`: inactive: 0.761; `C[C@H]1CN([C@@H](C)CO)C(=O)c2cccc(NC(=O)Nc3ccc(C(F)(F)F)cc3)c2O[C@@H]1CN(C)C(=O)Nc1ccc2c(c1)OCO2`: inactive: 0.911. In the case of `O=c1c(-c2ccc(O)cc2)coc2c([C@@H]3O[C@H](CO)[C@@H](O)[C@H](O)[C@H]3O)c(O)ccc12` it was inactive: 0.992; in that of `Cc1ccc(S(=O)(=O)C[C@H]2O[C@@H](n3cc(I)c(=O)[nH]c3=O)C[C@@H]2O)cc1`, inactive: 0.995. For `C[C@@H]1CCCCO[C@@H](CN(C)S(=O)(=O)c2ccc(Cl)cc2)[C@H](C)CN([C@@H](C)CO)C(=O)c2cc(NS(=O)(=O)c3cccs3)ccc2O1`, the relative growth was inactive: 1.05. Next, `C[C@@H]1CN([C@H](C)CO)C(=O)c2cc(NS(=O)(=O)c3cn(C)cn3)ccc2O[C@@H](C)CCCCO[C@H]1CN(C)S(=O)(=O)c1cn(C)cn1`: inactive: 0.983; `COc1ccc(S(=O)(=O)N(C)C[C@H]2Oc3ccc(NC(=O)CCN4CCOCC4)cc3CC(=O)N([C@@H](C)CO)C[C@@H]2C)cc1`: inactive: 1.01; `C[C@H]1CN([C@@H](C)CO)C(=O)c2cc(NC(=O)C3CC3)ccc2O[C@@H]1CN(C)S(=O)(=O)c1ccc(F)cc1`: inactive: 1.

`COc1ccc(S(=O)(=O)Nc2ccc3c(c2)C(=O)N([C@@H](C)CO)C[C@@H](C)[C@@H](CN(C)C(=O)NC(C)C)O3)cc1`: the relative growth was inactive: 0.967.

As for `C=CCNC(=O)[C@@H]1[C@H]2C(=O)O[C@H](c3ccccc3)[C@H](c3ccccc3)N2[C@H](c2ccccc2OCCO)[C@@]12C(=O)N(C(=O)OCCOC)c1ccc(C#Cc3ccc(OC)cc3)cc12`, the relative growth is inactive: 1.07. Next, `C[C@@H]1CN([C@@H](C)CO)C(=O)c2cc(NC(=O)c3ccncc3)ccc2O[C@@H](C)CCCCO[C@H]1CN(C)C(=O)Nc1cccc2ccccc12`: inactive: 0.985. Regarding `CC(C)NC(=O)Nc1ccc2c(c1)CC(=O)N([C@H](C)CO)C[C@@H](C)[C@H](CN(C)S(=O)(=O)c1ccc(F)cc1)O2`, the relative growth was inactive: 0.979.

In the case of `Cc1ccc(S(=O)(=O)N(C)C[C@@H]2OCCCC[C@H](C)Oc3ccc(NC(=O)CCC(F)(F)F)cc3C(=O)N([C@@H](C)CO)C[C@@H]2C)cc1`, the relative growth is inactive: 0.991. Consider `Cc1ccccc1NC(=O)Nc1ccc(CC(=O)N(C)[C@@H](CC(C)C)C(=O)NCC[C@H](NC(=O)[C@@H]2CCCN2S(=O)(=O)c2cc(Cl)cc(Cl)c2)C(=O)O)cc1`, for which the relative growth was inactive: 0.988. In the case of `COc1ccc(S(=O)(=O)Nc2ccc3c(c2)CC(=O)N([C@@H](C)CO)C[C@H](C)[C@H](CN(C)C(=O)Nc2c(C)noc2C)O3)cc1` it was inactive: 1.02; in that of `COc1ccc2c3c(n(c2c1)C)[C@H](CO)N(C[C@]13CN(C1)C(=O)C)C(=O)CN1CCOCC1`, inactive: 0.994.

As for `CNC[C@H]1OCCCC[C@@H](C)Oc2ccc(NC(=O)Nc3ccc(C(F)(F)F)cc3)cc2C(=O)N([C@H](C)CO)C[C@H]1C`, the relative growth is inactive: 0.947. In the case of `NC[C@](O)(c1cccs1)C1CC1` it was inactive: 1.01.
